# Results are given in words; binding and its absence hold for the method and conditions named. Some entries that bind do so weakly or less than the wild type.
# Columns and labels:
# [1] = molecular target: h/m protease-like domain chimera (human protease like domain grafted on mouse TfR1 ectodomain) (human/mouse chimera); assay: indirect ELISA, coated antigen 1 µg/ml, mouse IgG dilution series
# [2] = molecular target: cynomolgus TfR1 (recombinant, construct not stated) (cynomolgus); assay: ELISA, hybridoma supernatant
# [3] = molecular target: hTfR1 (recombinant, construct not stated) (human) (UniProt P02786); assay: BLI (Octet): mouse IgG captured from crude hybridoma supernatant on anti-mouse capture sensors; 250 nM hTfR1 in solution, 120 s association, 90 s dissociation [panel A]
# [4] = molecular target: h/m protease-like domain chimera (human protease like domain grafted on mouse TfR1 ectodomain) (human/mouse chimera); assay: indirect ELISA, coated antigen
# [5] = molecular target: cynomolgus TfR1 (recombinant, construct not stated) (cynomolgus); assay: BLI (Octet): mouse IgG captured from crude hybridoma supernatant on anti-mouse capture sensors; 250 nM cTfR1 in solution, 120 s association, 90 s dissociation [panel A]
# [6] = molecular target: cynomolgus TfR1 (recombinant, construct not stated) (cynomolgus); assay: BLI, IgG captured from hybridoma supernatant, 250 nM cTfR1
# [7] = molecular target: hTfR1 (recombinant, construct not stated) (human) (UniProt P02786); assay: BLI epitope binning, 200 nM; competitor 15G11-1 pre-bound
# [8] = molecular target: cynomolgus TfR1 (recombinant, construct not stated) (cynomolgus); assay: BLI, IgG captured from hybridoma supernatant, 250 nM cTfR1 in solution
# [9] = molecular target: hTfR1 (recombinant, construct not stated) (human) (UniProt P02786); assay: BLI, IgG captured from hybridoma supernatant, 250 nM hTfR1
# [10] = molecular target: hTfR1 (recombinant, construct not stated) (human) (UniProt P02786); assay: BLI, IgG captured from hybridoma supernatant, 250 nM hTfR1 in solution
# [11] = molecular target: h/m helical domain chimera (human helical domain grafted on mouse TfR1 ectodomain) (human/mouse chimera); assay: indirect ELISA, coated antigen 1 µg/ml
# [12] = molecular target: h/m apical domain chimera (human apical domain grafted on mouse TfR1 ectodomain) (human/mouse chimera); assay: indirect ELISA, coated antigen 1 µg/ml
# [13] = molecular target: h/m helical domain chimera (human helical domain grafted on mouse TfR1 ectodomain) (human/mouse chimera); assay: indirect ELISA on plate coated with 1 µg/ml h/m helical domain chimera; dilution series of IgG, HRP anti-mouse IgG, OD450; x axis printed 'TfR (ng/ml)' [E]
# [14] = molecular target: h/m protease-like domain chimera (human protease like domain grafted on mouse TfR1 ectodomain) (human/mouse chimera); assay: indirect ELISA on plate coated with 1 µg/ml h/m protease-like domain chimera; dilution series of IgG, HRP anti-mouse IgG, OD450; x axis printed 'TfR (ng/ml)' [D]
# [15] = molecular target: h/m apical domain chimera (human apical domain grafted on mouse TfR1 ectodomain) (human/mouse chimera); assay: indirect ELISA on plate coated with 1 µg/ml h/m apical domain chimera; dilution series of IgG, HRP anti-mouse IgG, OD450; x axis printed 'TfR (ng/ml)' [C]
# [16] = molecular target: hTfR1 (recombinant, construct not stated) (human) (UniProt P02786); assay: BLI epitope binning (Octet): biotinylated hTfR1 on streptavidin sensors, 200 nM antibody in solution
# [17] = molecular target: cynomolgus TfR1 (recombinant, construct not stated) (cynomolgus); assay: BLI (Octet): cTfR1 held on streptavidin sensors by biotinylated human holo-transferrin; 15 nM Fab in solution, 120 s association, 300 s dissociation [middle column, lower panel (cTfR1]
# [18] = molecular target: cynomolgus TfR1 (recombinant, construct not stated) (cynomolgus); assay: BLI, cTfR1 captured on biotinylated holo-transferrin, Fab 15 nM
# [19] = molecular target: cynomolgus TfR1 (recombinant, construct not stated) (cynomolgus); assay: BLI (Octet): mouse IgG captured from crude hybridoma supernatant on anti-mouse capture sensors; 250 nM cTfR1 in solution, 120 s association, 90 s dissociation [panel C]
# [20] = molecular target: hTfR1 (recombinant, construct not stated) (human) (UniProt P02786); assay: BLI (Octet): mouse IgG captured from crude hybridoma supernatant on anti-mouse capture sensors; 250 nM hTfR1 in solution, 120 s association, 90 s dissociation [panel C]
# [21] = molecular target: cynomolgus TfR1 (recombinant, construct not stated) (cynomolgus); assay: BLI (Octet): mouse IgG captured from crude hybridoma supernatant on anti-mouse capture sensors; 250 nM cTfR1 in solution, 120 s association, 90 s dissociation [panel B]
Binder,binding [1],binding [2],binding [4],binding [6],binding [8],binding [9],binding [10],binding [11],binding [12],binding [13],binding [14],binding [15],further results
"24B4 (antibody, V domains shown) VH: EVQLQQFGAELVKPGTSVKISCKASGYTFTDYNMDWVKQGHGKGLEWIGDINPNYDTTSYSQKFKGKATLTVDKSSSTAYMELRSLTSEDTAVYYCARSEAGNYYWYFDVWGAGTTVTVSS VL: DIVMSQSPSSLAVSVGEKVTMSCKSSQSLLYSSNRKNYLAWYRQKPGQSPKLLIYWASTRESGVPDRFTGSGSGTDFTLTISSVKAEDLAVYSCQQYYNYPYTFGGGTKLEIK",binds,binds,binds,binds,binds,binds,binds,no binding,no binding,no binding (tested: about 650 ng/ml),binds,no binding (tested: about 650 ng/ml),binding [3]: binds; binding [5]: binds; binding [7]: binds; binding [16]: binds
"26D3-Fab (Fab, V domains shown) VH: EVQLQQFGVELVKPGASVKISCKASGYIFTDYNMDWVKQSHGKSLEWIGDINPDYDTTSYNEKFKGKATLTVDKSSSTAYMELRSLTSEDTAVYYCARGGYSGSSYYHPMDYWGQGTSVTVSS VL: DIVMSQSPSSLAVSVGEKITMSCKSSQSLLYSTNQKNYLAWYQQKPGQSPELLIYWASTRESGVPDRFTGSGSGTDFTLTISNVRAEDLAVYYCQQYFIYPRTFGGGTKLEIK",–,–,–,–,–,–,–,–,–,–,–,–,binding [17]: binds; binding [18]: binds
"37D10 (antibody, IgG2a, V domains shown) VH: QVQLQQSGAELVRPGTSVKISCKASGYAFTNYWLGWVKQRPGHGLEWIGDIFPGSDNTYYNEKFKGKATLTADKSSSTAYMQLSSLASEDSAVYFCARSGNFYAMDYWGQGTSVTVSS VL: ENVLTQSPAIMSASPGEKVTMTCSASSSVNYMNWYQQKSSTFPKLWIYDTSKLASGVPGRFSGSGSGKFYSLTISSMEAEDVATYYCFQGSGYPFTFGSGTKLEIK",binds,binds,binds,binds,binds,binds,binds,no binding,no binding,no binding (tested: about 650 ng/ml),binds,no binding (tested: about 650 ng/ml),binding [19]: binds; binding [20]: binds
"26D3 (antibody, V domains shown) VH: EVQLQQFGVELVKPGASVKISCKASGYIFTDYNMDWVKQSHGKSLEWIGDINPDYDTTSYNEKFKGKATLTVDKSSSTAYMELRSLTSEDTAVYYCARGGYSGSSYYHPMDYWGQGTSVTVSS VL: DIVMSQSPSSLAVSVGEKITMSCKSSQSLLYSTNQKNYLAWYQQKPGQSPELLIYWASTRESGVPDRFTGSGSGTDFTLTISNVRAEDLAVYYCQQYFIYPRTFGGGTKLEIK",binds,binds,binds,binds,binds,–,–,–,no binding,–,binds,no binding (tested: about 650 ng/ml),binding [21]: binds
